Experimental data from article PMC5540273 (PLoS ONE, 2017).
What follows is the remainder of the data, with few or none of the strong results.

test system: CDK5; settings: concentration: 1 μM,replicates: in singlicate; n = 1
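Further: KINOMEscan kinase panel screen.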

Structure (SMILES) | %Inh
O=C1NC(=O)C(c2ccc(Cl)cc2)=C1Nc1cccc(C(=O)O)c1 [SB-360737] | 0%
O=C1NC(=O)C(c2ccccc2Cl)=C1Nc1cccc(C(=O)O)c1 [SB-390526] | 0%
O=C1NC(=O)C(c2ccc(Cl)cc2)=C1Nc1ccc(O)c(Cl)c1 [SB-405367] | 31%
O=C1NC(=O)C(c2ccc(Cl)cc2)=C1Nc1cccc(O)c1 [SB-333613] | 0%
O=C1NC(=O)C(c2ccccc2)=C1Nc1cc(Cl)c(O)c(Cl)c1 [SB-390530] | 11%
Cc1ccc(C)c(Oc2nccc(-c3c(-c4ccc(F)cc4)ncn3C3CCNCC3)n2)c1.O=C(O)C(F)(F)F.O=C(O)C(F)(F)F.O=C(O)C(F)(F)F [SB-284852] | 0%
Cc1cc(C)cc(Oc2nccc(-c3c(-c4ccc(F)cc4)ncn3C3CCNCC3)n2)c1.O=C(O)C(F)(F)F.O=C(O)C(F)(F)F.O=C(O)C(F)(F)F [SB-284851] | 0%
O=C1NC(=O)C(c2ccccc2)=C1Nc1ccc(Cl)c(C(=O)O)c1 [SB-390532] | 0%
O=C1NC(=O)C(c2ccccc2Cl)=C1Nc1ccccc1 [SB-376715] | 0%
O=C(O)c1ccc(-c2nc(-c3ccc(F)cc3)c(-c3ccncc3)[nH]2)cc1 [SB-202620] | 7%
COc1cccc(C2=C(Nc3ccc(SC)cc3)C(=O)NC2=O)c1 [SB-331032] | 0%
COc1ccc(C2=C(Nc3cccc(Cl)c3)C(=O)NC2=O)cc1 [SB-326892] | 0%
CSc1ccc(NC2=C(c3cccc(Cl)c3)C(=O)NC2=O)cc1 [SB-341528] | 0%
O=C1NC(=O)C(c2ccc(Cl)cc2)=C1Nc1ccccc1 [SB-317661] | 0%
O=C1NC(=O)c2c1c(-c1ccccc1)cc1[nH]c3ccc(O)cc3c21 | 20%
CS(=O)(=O)c1ccccc1-c1nc(-c2ccc(F)cc2)c(-c2ccncc2)[nH]1 [SB-213663] | 0%

test system: CDK7; settings: concentration: 1 μM,replicates: in singlicate; n = 1

Structure (SMILES) | %Inh
O=C1NC(=O)C(c2ccc(Cl)cc2)=C1Nc1cccc(C(=O)O)c1 [SB-360737] | 0%
O=C1NC(=O)C(c2ccccc2Cl)=C1Nc1cccc(C(=O)O)c1 [SB-390526] | 7%
O=C1NC(=O)C(c2ccc(Cl)cc2)=C1Nc1ccc(O)c(Cl)c1 [SB-405367] | 11%
O=C1NC(=O)C(c2ccc(Cl)cc2)=C1Nc1cccc(O)c1 [SB-333613] | 37%
O=C1NC(=O)C(c2ccccc2)=C1Nc1cc(Cl)c(O)c(Cl)c1 [SB-390530] | 23%
Cc1ccc(C)c(Oc2nccc(-c3c(-c4ccc(F)cc4)ncn3C3CCNCC3)n2)c1.O=C(O)C(F)(F)F.O=C(O)C(F)(F)F.O=C(O)C(F)(F)F [SB-284852] | 0%
Cc1cc(C)cc(Oc2nccc(-c3c(-c4ccc(F)cc4)ncn3C3CCNCC3)n2)c1.O=C(O)C(F)(F)F.O=C(O)C(F)(F)F.O=C(O)C(F)(F)F [SB-284851] | 0%
O=C1NC(=O)C(c2ccccc2)=C1Nc1ccc(Cl)c(C(=O)O)c1 [SB-390532] | 0%
O=C1NC(=O)C(c2ccccc2Cl)=C1Nc1ccccc1 [SB-376715] | 38%
O=C(O)c1ccc(-c2nc(-c3ccc(F)cc3)c(-c3ccncc3)[nH]2)cc1 [SB-202620] | 21%
COc1cccc(C2=C(Nc3ccc(SC)cc3)C(=O)NC2=O)c1 [SB-331032] | 32%
COc1ccc(C2=C(Nc3cccc(Cl)c3)C(=O)NC2=O)cc1 [SB-326892] | 0%
CSc1ccc(NC2=C(c3cccc(Cl)c3)C(=O)NC2=O)cc1 [SB-341528] | 0%
O=C1NC(=O)C(c2ccc(Cl)cc2)=C1Nc1ccccc1 [SB-317661] | 2%
O=C1NC(=O)c2c1c(-c1ccccc1)cc1[nH]c3ccc(O)cc3c21 | 20%
CS(=O)(=O)c1ccccc1-c1nc(-c2ccc(F)cc2)c(-c2ccncc2)[nH]1 [SB-213663] | 27%
